In all, about 310,000 compounds went through this assay and about 2,200 (0.71%) showed an effect of 50% or more. The effect is printed as a negative number. Some of the results follow.
molecular target: human ether-à-go-go-related gene (hERG) potassium channel (human, UniProt Q12809); assay: primary screen, population patch clamp on CHO cells stably expressing hERG
Sequence (Q12809 whole entry, looked up): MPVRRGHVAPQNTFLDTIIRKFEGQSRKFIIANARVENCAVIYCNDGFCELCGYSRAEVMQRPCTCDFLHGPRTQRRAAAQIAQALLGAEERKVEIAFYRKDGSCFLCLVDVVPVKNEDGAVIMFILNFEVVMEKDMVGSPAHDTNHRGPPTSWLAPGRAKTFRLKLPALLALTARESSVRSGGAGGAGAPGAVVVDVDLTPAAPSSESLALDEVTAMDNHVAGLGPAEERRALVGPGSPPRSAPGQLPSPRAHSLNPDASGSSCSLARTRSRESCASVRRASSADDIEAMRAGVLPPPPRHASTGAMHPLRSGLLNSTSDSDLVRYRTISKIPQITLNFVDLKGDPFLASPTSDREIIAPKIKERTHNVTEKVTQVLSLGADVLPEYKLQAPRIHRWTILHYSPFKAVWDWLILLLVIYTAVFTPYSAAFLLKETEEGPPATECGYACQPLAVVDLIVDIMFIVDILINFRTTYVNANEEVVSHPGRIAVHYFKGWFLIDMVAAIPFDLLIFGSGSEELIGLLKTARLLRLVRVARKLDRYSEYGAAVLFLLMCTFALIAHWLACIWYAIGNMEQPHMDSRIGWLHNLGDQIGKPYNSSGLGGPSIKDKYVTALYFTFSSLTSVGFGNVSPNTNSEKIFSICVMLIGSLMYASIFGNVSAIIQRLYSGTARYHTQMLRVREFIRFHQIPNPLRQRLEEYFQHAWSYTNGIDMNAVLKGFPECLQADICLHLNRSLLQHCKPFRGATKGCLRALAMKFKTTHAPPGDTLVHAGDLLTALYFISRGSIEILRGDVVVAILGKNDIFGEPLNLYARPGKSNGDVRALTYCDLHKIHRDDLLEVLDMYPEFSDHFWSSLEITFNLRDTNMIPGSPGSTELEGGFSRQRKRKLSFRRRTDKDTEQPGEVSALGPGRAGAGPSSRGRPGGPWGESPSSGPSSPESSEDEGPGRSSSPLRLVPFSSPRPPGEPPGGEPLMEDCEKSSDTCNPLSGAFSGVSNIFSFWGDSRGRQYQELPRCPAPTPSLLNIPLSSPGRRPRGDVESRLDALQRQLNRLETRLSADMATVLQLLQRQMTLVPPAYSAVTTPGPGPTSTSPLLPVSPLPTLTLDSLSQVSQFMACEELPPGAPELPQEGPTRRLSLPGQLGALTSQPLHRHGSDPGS

Going from COc1cccc(C2C(C#N)=C(N)N(N(C)C)C3=C2C(=O)CC(C)(C)C3)c1 (centres unmarked) to COc1cccc(S(=O)(=O)c2nc(C)c3c(n2)CCC3)c1, the “hERG current change (%, negative = inhibition) at 1uM” value falls from 16.6% to -30.7%.

Going from COc1cccc(-c2nc(CS(=O)(=O)CC(=O)NCCc3ccc(OC)cc3OC)c(C)o2)c1 to COc1ccc2cc(CCNC(=O)c3cccc([N+](=O)[O-])c3)c(=O)[nH]c2c1, the “hERG current change (%, negative = inhibition) at 1uM” value falls from 5.41% to -14.2%.

First: Cc1cc(C(=O)NCc2ccc(S(N)(=O)=O)cc2)ccc1[N+](=O)[O-]
Second: COc1ccccc1CNC(=O)c1ccc(Br)o1
The “hERG current change (%, negative = inhibition) at 1uM” value of the first is higher: 14.3% for the first, 6.07% for the second.

Going from COc1ccc(NC(=O)CN(C)C(=O)c2cccc(S(=O)(=O)Nc3ccc(F)cc3)c2)cc1 to COc1ccc(NC(=O)CS(=O)(=O)c2cn(CC(=O)N3CCOCC3)c3ccccc23)cc1, the “hERG current change (%, negative = inhibition) at 1uM” value rises from 3.6% to 9.07%.

Compared with Cc1cc(C)cc(N2C(=O)/C(=C\c3ccc(N4CCN(C)CC4)o3)C(=O)NC2=S)c1, Cc1ccc(Cn2ncc3c(N4CCN(CC#N)CC4)ncnc32)cc1 is lower in “hERG current change (%, negative = inhibition) at 1uM” value: 6.68% for the first, 3.22% for the second.

Compared with COCCCN1CN(S(=O)(=O)c2ccc(Cl)cc2)c2nc3ccccc3nc21, CN1CCN(C(=O)COc2ccc(-c3nc4ccccc4s3)cc2)CC1 is higher in “hERG current change (%, negative = inhibition) at 1uM” value: 4.5% for the first, 8.33% for the second.

Compared with Cc1cc(NC(=O)CSc2ccc3c(c2)OCCO3)no1, CN1C(C(=O)Nc2ccc(OC(F)(F)F)cc2)=CC(c2ccc3c(c2)OCO3)=NS1(=O)=O is higher in “hERG current change (%, negative = inhibition) at 1uM” value: 0.276% for the first, 14.9% for the second.

Compared with CCN(CC)C(=O)c1cccc(NC(=O)c2cc(C3CC3)nc3c2cnn3C(C)C)c1, Cc1ccc(NC(=O)CNC(=O)Cn2cnc3sc(C)c(C)c3c2=O)cc1F is higher in “hERG current change (%, negative = inhibition) at 1uM” value: 5.55% for the first, 12.2% for the second.

First: CCOc1ccccc1NC(=O)c1cnc(NS(=O)(=O)c2ccccc2)nc1
Second: CC(C(=O)Nc1ncccn1)(c1ccccc1)c1ccccc1
The “hERG current change (%, negative = inhibition) at 1uM” value of the first is higher: 17.4% for the first, 8.18% for the second.

Going from O=C(N/N=C/c1ccoc1)c1cc(Br)ccc1O to Nc1nnn(CC(=O)N/N=C/c2cccc3ccccc23)n1, the “hERG current change (%, negative = inhibition) at 1uM” value falls from 7.58% to 3.93%.

Compared with COc1ccc(CCNC(=O)c2ccccc2SC)cc1, Cc1cc(O)cc(=O)n1CCc1ccccc1 is higher in “hERG current change (%, negative = inhibition) at 1uM” value: 10.1% for the first, 13.3% for the second.

Going from Cc1ccccc1NC(=S)NNC(=O)c1ccoc1C to C=CCN(Cc1nc(-c2ccccc2)no1)C(=O)c1ccoc1C, the “hERG current change (%, negative = inhibition) at 1uM” value rises from 5% to 9.08%.

Compared with COc1ccccc1CNCC(c1ccccc1)c1ccccc1, Cc1cccc(N(CC(O)CN(C)C)S(=O)(=O)c2ccccc2)c1.Cl (centres unmarked) is lower in “hERG current change (%, negative = inhibition) at 1uM” value: -2.66% for the first, -50.1% for the second.

Compared with O=S(=O)(Nc1cccc(-n2cnnn2)c1)c1ccccc1F, CN(C)C=O.CN(C)S(=O)(=O)c1cccc(NC(=O)CSc2ncnc3ccccc23)c1 is lower in “hERG current change (%, negative = inhibition) at 1uM” value: 15.9% for the first, 1.3% for the second.

First: CC(C)(C)CC(=O)NC(=S)N1CCCCCC1
Second: CC(C)C(=O)NC(=S)Nc1ccc(S(=O)(=O)N2CCCC2)cc1
The “hERG current change (%, negative = inhibition) at 1uM” value of the first is lower: 13.1% for the first, 14.2% for the second.

First: Cc1ccc(OC(C)C(=O)O)cc1C (centres unmarked)
Second: CCN(CC)c1ccc(C(=O)O)cc1
The “hERG current change (%, negative = inhibition) at 1uM” value of the first is lower: 0.563% for the first, 6.39% for the second.

Compared with CC(C)Cc1cc(CN2CCCC(CO)(Cc3cccc(Cl)c3)C2)[nH]n1 (centres unmarked), COc1cccc(N2CCN(C(=O)c3ccc(CS(=O)c4ccccc4Cl)o3)CC2)c1 (centres unmarked) is higher in “hERG current change (%, negative = inhibition) at 1uM” value: -14.7% for the first, -10.7% for the second.

Going from CCCCC1(C)NC(=S)N2N1C(=S)NC2(C)CCCC (centres unmarked) to CCOC(=O)N1CCc2c(sc(NC(=O)CN(CC)CC)c2C#N)C1, the “hERG current change (%, negative = inhibition) at 1uM” value falls from 11.9% to 9.35%.

Compared with Cc1ccc(NC(=O)c2cc(-c3cccs3)nc3ccccc23)nc1, O=C(c1cc(-c2ccco2)on1)N1CCc2ccccc2C1 is higher in “hERG current change (%, negative = inhibition) at 1uM” value: 10.5% for the first, 13.4% for the second.

Compared with O=C(CCSCc1ccccc1Cl)NC1CCCCC1, Cn1cc(C(=O)C(=O)N2CCOCC2)c2ccccc21 is lower in “hERG current change (%, negative = inhibition) at 1uM” value: 23.2% for the first, 3.16% for the second.

Going from CC1CCC(=NNc2ccc(C(F)(F)F)cc2[N+](=O)[O-])CC1 (centres unmarked) to CC1CCc2cccc3c2N1c1cc(C#N)c(C#N)cc1O3 (centres unmarked), the “hERG current change (%, negative = inhibition) at 1uM” value falls from 11.4% to -1.5%.

Going from CCc1ccccc1Nc1nc(N)nc(CSc2nnc3ccccn23)n1 to O=C(Nc1ccc(S(=O)(=O)Nc2ccccn2)cc1)C(F)(F)F, the “hERG current change (%, negative = inhibition) at 1uM” value falls from 10.5% to 3.12%.

From PMC4336329 (PLoS ONE, 2015)
